In the supplement of paper PMC7826260:
The list shows a part of the results. Cleavage of a single-stranded DNA pool by Rep nickase domains was read by sequencing for 1 h at 37 °C with 3 µM enzyme; only the middle of the 90-letter strands is printed. A value is the log2 ratio of uncut reads to the pool without enzyme; strong cutting gives strongly negative numbers. There is no active / inactive call. Shares of all reads are compared; uncut strands gain when others are lost, and binding without cutting may add a little.

How the values were obtained:
Assay in all cases: uncleaved DNA left, log2 of reads against the no-enzyme library (log2 ratio); higher = less cleavage (more negative = more Rep cleavage of the k-mer); sequences stand for … in CTCGTCCG…ACCGGAGA
[1] = tested on: T1, Rep nickase domain of Muscovy duck circovirus
T1 sequence (protein, residues 1-111, tag omitted): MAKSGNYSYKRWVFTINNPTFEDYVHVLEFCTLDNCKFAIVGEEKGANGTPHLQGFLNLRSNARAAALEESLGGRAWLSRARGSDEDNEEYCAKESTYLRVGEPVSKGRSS
Experimental: (§1)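 A pool of 90-nt single-stranded DNAs with seven random bases just before the constant AC of the nick site (name = the seven bases) was cut by 3 µM recombinant His6-SUMO-tagged Rep nickase domain (300 nM DNA, 50 mM HEPES pH 8.0, 50 mM NaCl, 1 mM MnCl2, 1 h, 37 °C, three replicates). Uncut DNA was amplified and sequenced.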

[2] = tested on: T2, Rep nickase domain of banana bunchy top virus
T2 sequence (protein, residues 1-94, tag omitted): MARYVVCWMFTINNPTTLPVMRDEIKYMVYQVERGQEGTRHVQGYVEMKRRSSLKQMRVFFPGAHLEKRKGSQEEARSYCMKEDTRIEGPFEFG
Experimental: as §1

[3] = tested on: T3, Rep nickase domain of cabbage leaf curl virus
T3 sequence (protein, residues 1-116, tag omitted): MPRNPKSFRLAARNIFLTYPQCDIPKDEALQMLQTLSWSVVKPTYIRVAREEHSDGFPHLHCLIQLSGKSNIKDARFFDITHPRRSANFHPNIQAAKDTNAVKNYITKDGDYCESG
Experimental: as §1

[4] = tested on: T4, Rep nickase domain of chickpea chlorotic dwarf virus
T4 sequence (protein, residues 1-124, tag omitted): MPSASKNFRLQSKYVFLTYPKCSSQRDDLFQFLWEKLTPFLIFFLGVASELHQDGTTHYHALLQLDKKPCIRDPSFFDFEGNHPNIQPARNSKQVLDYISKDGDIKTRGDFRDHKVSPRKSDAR
Experimental: as §1

[5] = tested on: T5, Rep nickase domain of faba bean necrotic yellows virus
T5 sequence (protein, residues 1-98, tag omitted): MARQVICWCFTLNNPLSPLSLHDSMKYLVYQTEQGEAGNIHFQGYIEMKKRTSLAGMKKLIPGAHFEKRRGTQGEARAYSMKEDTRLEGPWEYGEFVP
Experimental: as §1

[6] = tested on: T6, Rep nickase domain of maize striate mosaic virus
T6 sequence (protein, residues 1-117, tag omitted): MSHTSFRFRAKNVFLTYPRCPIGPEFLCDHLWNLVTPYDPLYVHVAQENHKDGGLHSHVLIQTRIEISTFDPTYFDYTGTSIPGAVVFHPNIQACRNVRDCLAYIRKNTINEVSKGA
Experimental: as §1

[7] = tested on: T7, Rep nickase domain of porcine circovirus 2
T7 sequence (protein, residues 2-116, tag omitted): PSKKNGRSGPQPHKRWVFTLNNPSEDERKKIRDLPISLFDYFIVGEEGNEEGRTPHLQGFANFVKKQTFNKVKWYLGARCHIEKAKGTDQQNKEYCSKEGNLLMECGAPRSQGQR
Experimental: as §1

[8] = tested on: T8, Rep nickase domain of tomato golden mosaic virus
T8 sequence (protein, residues 1-124, tag omitted): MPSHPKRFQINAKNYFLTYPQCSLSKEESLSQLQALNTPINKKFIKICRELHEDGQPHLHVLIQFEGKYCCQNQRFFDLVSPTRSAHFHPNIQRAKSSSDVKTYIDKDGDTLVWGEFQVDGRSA
Experimental: as §1

[9] = tested on: T9, Rep nickase domain of tomato yellow leaf curl virus
T9 sequence (protein, residues 1-136, tag omitted): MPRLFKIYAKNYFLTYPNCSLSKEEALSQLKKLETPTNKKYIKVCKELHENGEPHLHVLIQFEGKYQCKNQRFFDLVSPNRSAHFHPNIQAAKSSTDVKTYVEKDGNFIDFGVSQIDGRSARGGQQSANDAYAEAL
Experimental: as §1

[10] = tested on: T10, Rep nickase domain of wheat dwarf virus
T10 sequence (protein, residues 1-137, tag omitted): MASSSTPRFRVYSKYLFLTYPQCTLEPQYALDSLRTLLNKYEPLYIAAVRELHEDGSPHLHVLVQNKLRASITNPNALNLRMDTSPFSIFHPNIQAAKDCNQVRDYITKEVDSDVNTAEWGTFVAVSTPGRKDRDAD
Experimental: as §1

With GTTATAG the “uncleaved DNA left (log2)” value [1] was 0.0876, the “uncleaved DNA left (log2)” value [2] was 0.0865 and the “uncleaved DNA left (log2)” value [3] was 0.0205. The “uncleaved DNA left (log2)” value [4] was 0.212, the “uncleaved DNA left (log2)” value [5] was 0.0486 and the “uncleaved DNA left (log2)” value [6] was -0.419. The “uncleaved DNA left (log2)” value [7] was 0.117, the “uncleaved DNA left (log2)” value [8] was 0.0921 and the “uncleaved DNA left (log2)” value [9] was 0.0514. For the same sequence, the “uncleaved DNA left (log2)” value [10] was 0.0611.

For ATTGTAC, the “uncleaved DNA left (log2)” value [1] was -0.0894, the “uncleaved DNA left (log2)” value [2] was -0.163 and the “uncleaved DNA left (log2)” value [3] was -0.231. The “uncleaved DNA left (log2)” value [4] was -0.883, the “uncleaved DNA left (log2)” value [5] was -0.0612 and the “uncleaved DNA left (log2)” value [6] was -1.09. The “uncleaved DNA left (log2)” value [7] was -0.0624, the “uncleaved DNA left (log2)” value [8] was -0.00813 and the “uncleaved DNA left (log2)” value [9] was -0.0286. For the same sequence, the “uncleaved DNA left (log2)” value [10] was -0.0832.

In the case of AATCTCC, the “uncleaved DNA left (log2)” value [1] is reported as -0.0214, the “uncleaved DNA left (log2)” value [2] is reported as -0.0116 and the “uncleaved DNA left (log2)” value [3] is reported as -0.196. For the same sequence, the “uncleaved DNA left (log2)” value [4] was -0.152, the “uncleaved DNA left (log2)” value [5] was -0.078 and the “uncleaved DNA left (log2)” value [6] was 1.64. For the same sequence, the “uncleaved DNA left (log2)” value [7] was 0.0641, the “uncleaved DNA left (log2)” value [8] was -0.0748 and the “uncleaved DNA left (log2)” value [9] was -0.0319. The “uncleaved DNA left (log2)” value [10] was 0.0965.

With GCTTTAG the “uncleaved DNA left (log2)” value [1] was 0.0592, the “uncleaved DNA left (log2)” value [2] was 0.0644 and the “uncleaved DNA left (log2)” value [3] was -0.236. For the same sequence, the “uncleaved DNA left (log2)” value [4] was 0.00694, the “uncleaved DNA left (log2)” value [5] was 0.0531 and the “uncleaved DNA left (log2)” value [6] was -0.971. The “uncleaved DNA left (log2)” value [7] was 0.192, the “uncleaved DNA left (log2)” value [8] was 0.167 and the “uncleaved DNA left (log2)” value [9] was -0.00875. The “uncleaved DNA left (log2)” value [10] was -0.0541.

In the case of ACTTGAT, the “uncleaved DNA left (log2)” value [1] is reported as 0.0255, the “uncleaved DNA left (log2)” value [2] is reported as 0.0441 and the “uncleaved DNA left (log2)” value [3] is reported as -0.0992. For the same sequence, the “uncleaved DNA left (log2)” value [4] was -0.313, the “uncleaved DNA left (log2)” value [5] was 0.0283 and the “uncleaved DNA left (log2)” value [6] was -0.453. The “uncleaved DNA left (log2)” value [7] was -1.44, the “uncleaved DNA left (log2)” value [8] was 0.135 and the “uncleaved DNA left (log2)” value [9] was -0.00276. The “uncleaved DNA left (log2)” value [10] was -0.0189.

For TACCTGT, the “uncleaved DNA left (log2)” value [1] was -0.0651, the “uncleaved DNA left (log2)” value [2] was -0.157 and the “uncleaved DNA left (log2)” value [3] was -0.176. The “uncleaved DNA left (log2)” value [4] was -1, the “uncleaved DNA left (log2)” value [5] was -0.174 and the “uncleaved DNA left (log2)” value [6] was 0.203. The “uncleaved DNA left (log2)” value [7] was -0.562, the “uncleaved DNA left (log2)” value [8] was -0.187 and the “uncleaved DNA left (log2)” value [9] was 0.0587. The “uncleaved DNA left (log2)” value [10] was -0.0813.

With GGTCTGC the “uncleaved DNA left (log2)” value [1] was -0.038, the “uncleaved DNA left (log2)” value [2] was 0.0493 and the “uncleaved DNA left (log2)” value [3] was 0.296. For the same sequence, the “uncleaved DNA left (log2)” value [4] was 0.88, the “uncleaved DNA left (log2)” value [5] was -0.0796 and the “uncleaved DNA left (log2)” value [6] was 1.09. For the same sequence, the “uncleaved DNA left (log2)” value [7] was 0.1, the “uncleaved DNA left (log2)” value [8] was 0.118 and the “uncleaved DNA left (log2)” value [9] was 0.0547. The “uncleaved DNA left (log2)” value [10] was 0.00361.

For CCCAAGA, the “uncleaved DNA left (log2)” value [1] was -0.0489, the “uncleaved DNA left (log2)” value [2] was 0.118 and the “uncleaved DNA left (log2)” value [3] was 0.0388. The “uncleaved DNA left (log2)” value [4] was 0.0311, the “uncleaved DNA left (log2)” value [5] was 0.0209 and the “uncleaved DNA left (log2)” value [6] was -0.977. The “uncleaved DNA left (log2)” value [7] was 0.0926, the “uncleaved DNA left (log2)” value [8] was 0.00193 and the “uncleaved DNA left (log2)” value [9] was 0.00913. The “uncleaved DNA left (log2)” value [10] was -0.00375.

With AGACACC the “uncleaved DNA left (log2)” value [1] was -0.0296, the “uncleaved DNA left (log2)” value [2] was 0.0833 and the “uncleaved DNA left (log2)” value [3] was 0.786. The “uncleaved DNA left (log2)” value [4] was 1.61, the “uncleaved DNA left (log2)” value [5] was 0.0853 and the “uncleaved DNA left (log2)” value [6] was 2.04. The “uncleaved DNA left (log2)” value [7] was 0.0423, the “uncleaved DNA left (log2)” value [8] was 0.102 and the “uncleaved DNA left (log2)” value [9] was 0.148. For the same sequence, the “uncleaved DNA left (log2)” value [10] was 0.235.

With GAACTAT the “uncleaved DNA left (log2)” value [1] was 0.00884, the “uncleaved DNA left (log2)” value [2] was 0.0582 and the “uncleaved DNA left (log2)” value [3] was 0.312. For the same sequence, the “uncleaved DNA left (log2)” value [4] was 0.0641, the “uncleaved DNA left (log2)” value [5] was -0.0925 and the “uncleaved DNA left (log2)” value [6] was 1.45. The “uncleaved DNA left (log2)” value [7] was 0.0694, the “uncleaved DNA left (log2)” value [8] was 0.0592 and the “uncleaved DNA left (log2)” value [9] was 0.0863. For the same sequence, the “uncleaved DNA left (log2)” value [10] was 0.212.

With CGTTGAG the “uncleaved DNA left (log2)” value [1] was 0.047, the “uncleaved DNA left (log2)” value [2] was -0.0317 and the “uncleaved DNA left (log2)” value [3] was -0.595. The “uncleaved DNA left (log2)” value [4] was 0.592, the “uncleaved DNA left (log2)” value [5] was 0.112 and the “uncleaved DNA left (log2)” value [6] was -0.507. The “uncleaved DNA left (log2)” value [7] was 0.13, the “uncleaved DNA left (log2)” value [8] was -0.0761 and the “uncleaved DNA left (log2)” value [9] was 0.109. The “uncleaved DNA left (log2)” value [10] was -0.179.

With TCGCATT the “uncleaved DNA left (log2)” value [1] was 0.0304, the “uncleaved DNA left (log2)” value [2] was -0.0282 and the “uncleaved DNA left (log2)” value [3] was -0.0891. For the same sequence, the “uncleaved DNA left (log2)” value [4] was -1.49, the “uncleaved DNA left (log2)” value [5] was -0.0529 and the “uncleaved DNA left (log2)” value [6] was -0.381. For the same sequence, the “uncleaved DNA left (log2)” value [7] was -1.13, the “uncleaved DNA left (log2)” value [8] was -0.03 and the “uncleaved DNA left (log2)” value [9] was 0.0649. For the same sequence, the “uncleaved DNA left (log2)” value [10] was 0.158.

For ATAATGG, the “uncleaved DNA left (log2)” value [1] was 0.127, the “uncleaved DNA left (log2)” value [2] was -0.0185 and the “uncleaved DNA left (log2)” value [3] was -0.168. For the same sequence, the “uncleaved DNA left (log2)” value [4] was 0.129, the “uncleaved DNA left (log2)” value [5] was 0.0281 and the “uncleaved DNA left (log2)” value [6] was -0.753. The “uncleaved DNA left (log2)” value [7] was 0.0868, the “uncleaved DNA left (log2)” value [8] was 0.0496 and the “uncleaved DNA left (log2)” value [9] was 0.02. For the same sequence, the “uncleaved DNA left (log2)” value [10] was -0.0073.

With TCCAAGA the “uncleaved DNA left (log2)” value [1] was 0.123, the “uncleaved DNA left (log2)” value [2] was 0.0101 and the “uncleaved DNA left (log2)” value [3] was 0.113. For the same sequence, the “uncleaved DNA left (log2)” value [4] was 0.238, the “uncleaved DNA left (log2)” value [5] was 0.11 and the “uncleaved DNA left (log2)” value [6] was -0.64. The “uncleaved DNA left (log2)” value [7] was 0.201, the “uncleaved DNA left (log2)” value [8] was 0.0941 and the “uncleaved DNA left (log2)” value [9] was 0.0911. The “uncleaved DNA left (log2)” value [10] was 0.0363.

With ATAATAT the “uncleaved DNA left (log2)” value [1] was 0.0581, the “uncleaved DNA left (log2)” value [2] was 0.0499 and the “uncleaved DNA left (log2)” value [3] was 0.29. For the same sequence, the “uncleaved DNA left (log2)” value [4] was -0.997, the “uncleaved DNA left (log2)” value [5] was 0.118 and the “uncleaved DNA left (log2)” value [6] was -0.608. For the same sequence, the “uncleaved DNA left (log2)” value [7] was -0.0226, the “uncleaved DNA left (log2)” value [8] was 0.0796 and the “uncleaved DNA left (log2)” value [9] was 0.0236. The “uncleaved DNA left (log2)” value [10] was 0.0627.
